Screen size: about 310,000 compounds; about 14,000 (4.5%) showed an effect of 50% or more. Effects have a minus sign here. Some of the results follow.
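Note: peak tail current of the secondary pulse compared with the same well before compound.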

The target in the assay is human ether-à-go-go-related gene (hERG) potassium channel (human, UniProt Q12809). Briefly: primary screen, population patch clamp on CHO cells stably expressing hERG.
Chain of human ether-à-go-go-related gene (hERG) potassium channel (Q12809 whole entry, looked up): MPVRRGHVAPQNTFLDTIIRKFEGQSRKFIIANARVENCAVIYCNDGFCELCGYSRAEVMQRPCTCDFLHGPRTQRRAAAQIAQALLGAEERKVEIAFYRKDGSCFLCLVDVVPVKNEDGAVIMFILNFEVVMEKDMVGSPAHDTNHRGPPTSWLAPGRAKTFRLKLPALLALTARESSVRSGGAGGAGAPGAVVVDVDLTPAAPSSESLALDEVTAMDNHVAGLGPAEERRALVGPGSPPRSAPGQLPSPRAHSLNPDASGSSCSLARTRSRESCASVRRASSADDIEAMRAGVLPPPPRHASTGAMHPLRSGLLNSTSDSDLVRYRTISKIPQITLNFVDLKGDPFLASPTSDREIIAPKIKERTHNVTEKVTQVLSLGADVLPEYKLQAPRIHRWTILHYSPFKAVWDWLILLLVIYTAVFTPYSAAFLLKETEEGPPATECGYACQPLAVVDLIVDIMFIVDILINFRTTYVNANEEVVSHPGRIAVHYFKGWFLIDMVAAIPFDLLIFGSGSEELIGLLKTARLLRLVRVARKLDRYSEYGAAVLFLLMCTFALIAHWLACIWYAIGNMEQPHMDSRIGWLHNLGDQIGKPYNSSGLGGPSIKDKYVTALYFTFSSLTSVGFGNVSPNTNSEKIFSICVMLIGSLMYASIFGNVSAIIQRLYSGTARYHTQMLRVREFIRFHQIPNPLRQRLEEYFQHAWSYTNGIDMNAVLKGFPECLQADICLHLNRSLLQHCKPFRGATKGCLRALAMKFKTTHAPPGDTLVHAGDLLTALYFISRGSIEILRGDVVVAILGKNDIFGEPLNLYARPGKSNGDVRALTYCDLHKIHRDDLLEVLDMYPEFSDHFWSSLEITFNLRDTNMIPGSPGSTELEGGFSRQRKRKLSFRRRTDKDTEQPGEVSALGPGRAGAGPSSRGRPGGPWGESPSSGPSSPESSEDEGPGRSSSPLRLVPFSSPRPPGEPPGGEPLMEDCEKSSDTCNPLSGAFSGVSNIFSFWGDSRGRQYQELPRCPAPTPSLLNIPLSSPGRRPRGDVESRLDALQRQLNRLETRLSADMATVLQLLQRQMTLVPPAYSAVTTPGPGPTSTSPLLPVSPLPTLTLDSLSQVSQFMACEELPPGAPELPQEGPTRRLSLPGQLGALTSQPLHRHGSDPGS
In the case of `CC(=O)OC(C(=O)NC1CCCCC1)c1ccccc1Cl` (centres unmarked), the “hERG current change (%, negative = inhibition) at 10uM” value was -2.88%.
`CCSc1nc2n(n1)C(c1cccc(F)c1)C1=C(CCCC1=O)N2` (centres unmarked): the “hERG current change (%, negative = inhibition) at 10uM” value was -7.28%.
To `N#Cc1c(-c2ccc(F)cc2)cc(C2CC2)nc1SCC(=O)c1cccs1` belongs 17.6%; to `CC(C)Oc1ccc2c(=O)c(-c3ccccc3)coc2c1`, 20.3%; to `C[C@@H]1C(=O)OC[C@H]1NC(=O)OCc1ccccc1`, 5.27%.
Under `COc1ccc(-c2n[nH]c(=S)n2-c2ccc(C)cc2C)cc1` stands 19.5%; under `O=c1[nH]c(N/N=C/c2cc3c(cc2[N+](=O)[O-])OCO3)nc2ccccc12`, -0.00362%; under `C/C(=N/NC(=O)c1cc(-c2ccc(Cl)s2)[nH]n1)c1ccco1`, 6.58%.
On to `CCOc1ccc(-c2nnn(CC(=O)NCCc3c[nH]c4ccccc34)n2)cc1`, for which the “hERG current change (%, negative = inhibition) at 10uM” value amounted to 1.45%.
Take `CCOc1cccc2cc(-c3nnc(NCc4ccc5c(c4)OCO5)s3)c(=O)oc12`: the “hERG current change (%, negative = inhibition) at 10uM” value was -4.36%.
Turning to `COc1cccc(NC(=S)NCCCN2CCOCC2)c1`, the “hERG current change (%, negative = inhibition) at 10uM” value turned out to be 16.7%.
For `O=[N+]([O-])c1ccc(N2CCCCC2)cc1`, the “hERG current change (%, negative = inhibition) at 10uM” value is on record as -16.5%.
To `O=C(CN(c1cccc([N+](=O)[O-])c1)S(=O)(=O)c1ccccc1)NCc1ccccc1` belongs -68.5%.
To `CN(C)CCCN1C(=O)c2oc3ccccc3c(=O)c2C1c1cccs1` (centres unmarked) belongs 5.5%.
`CCOC(=O)C(O)(c1ccc(N(CC)C(=O)OC)cc1)C(F)(F)F` (centres unmarked): the “hERG current change (%, negative = inhibition) at 10uM” value is 3.39%.
Take `Cc1nnc(SCC(=O)c2c[nH]c3ccccc23)n1C1CC1`: the “hERG current change (%, negative = inhibition) at 10uM” value was -17%.
For `CCCC(=O)Nc1ccc2c(c1)nc(CCN1CCCCC1)n2C`, the “hERG current change (%, negative = inhibition) at 10uM” value is given as -4.96%.
On to `COc1ccc(CC(=O)Oc2ccc(F)cc2)cc1`, for which the “hERG current change (%, negative = inhibition) at 10uM” value came to 10.5%.
Take `COC(=O)c1sccc1NC(=O)CSc1cccc(Cl)c1Cl`: the “hERG current change (%, negative = inhibition) at 10uM” value was 3.23%.
To `CC1=CSC2=NC(=O)/C(=C\c3cccn3-c3ccccc3)C(=N)N12` belongs 2.24%; to `CC(=O)CCc1ccc(Oc2nc(-c3cccnc3)nc3ccccc23)cc1`, 5.75%; to `CC1(C)CC(=O)C=C(NNC(=O)c2ccccc2O)C1`, -2.31%.
For `O=C(NC1CCCCC1)C(c1cccnc1)N(C(=O)c1csnn1)C1CCCC1` (centres unmarked), the “hERG current change (%, negative = inhibition) at 10uM” value is reported as 9.2%.
For the compound `C=CCOc1ccccc1CN1CCCC(CCC(=O)N(C)CCc2ccccn2)C1` (centres unmarked), the “hERG current change (%, negative = inhibition) at 10uM” value is on record as -33.6%.
Regarding `CC(C)(C)NCc1cc(Cl)ccc1OCc1ccccc1F.Cl`, the “hERG current change (%, negative = inhibition) at 10uM” value is -43.3%.
Regarding `O=C(NC(=S)NCc1ccccc1)c1ccccc1Br`, the “hERG current change (%, negative = inhibition) at 10uM” value is reported as 12.2%.
For `Cc1ccccc1NC(=O)COC(=O)c1ccc(S(=O)(=O)N2CCCC2)cc1`, the “hERG current change (%, negative = inhibition) at 10uM” value stood at 4.28%.
Turning to `CN(CC(=O)Nc1cccnc1Cl)S(=O)(=O)c1ccc(Cl)cc1`, the “hERG current change (%, negative = inhibition) at 10uM” value is given as -9.46%.
For the compound `COc1ccc2sc(N(CCN(C)C)C(=O)/C=C/c3cccs3)nc2c1.Cl`, the “hERG current change (%, negative = inhibition) at 10uM” value is -33.2%.
To `N#C/C(=C/c1cccc(O)c1)C(=O)NCc1ccc(Cl)cc1` belongs 31%; to `Cc1ccc(Cn2ccc(NC(=O)c3cc(C4CC4)on3)n2)cc1`, -13.4%; to `COCc1nnc(NC(=O)CCSc2ccccc2)s1`, 3.59%.
For `CCOC(=O)C(C(=O)OCC)N(C#N)c1nc(C)cc(C)n1`, the “hERG current change (%, negative = inhibition) at 10uM” value is listed as -4.66%.
As to `O=C(Nc1ccccc1N1CCN(C(=O)c2ccc(Cl)cc2)CC1)c1ccc(Br)cc1`, the “hERG current change (%, negative = inhibition) at 10uM” value is recorded as -41.5%.
Under `COc1ccc2c(CC(=O)OCC(=O)Nc3cccc(C)c3)coc2c1` stands 14.3%; under `Cc1cccc(S(=O)(=O)NCCC(=O)OCC(=O)Nc2ccc(C#N)cc2)c1`, -31.8%; under `CC(=O)OC(C(=O)Nc1nccs1)c1ccccc1` (centres unmarked), 2.26%.
On to `CCN(CC(=O)Nc1c(F)cccc1F)C(=O)Cc1csc(-c2ccc(OC)c(OC)c2)n1`, for which the “hERG current change (%, negative = inhibition) at 10uM” value was -2.82%.
Turning to `CC(C)c1ccc(NC2CCCN(C(=O)c3cc(C(C)C)nc(N)n3)C2)cc1` (centres unmarked), the “hERG current change (%, negative = inhibition) at 10uM” value stood at 1.21%.
On to `NS(=O)(=O)c1ccc(N/N=C/c2cn(-c3ccccc3)nc2-c2cccs2)c([N+](=O)[O-])c1`, for which the “hERG current change (%, negative = inhibition) at 10uM” value is given as 11.4%.
On to `COc1ccc(NC(=O)Nc2cc(C)ccc2F)cc1OC`, for which the “hERG current change (%, negative = inhibition) at 10uM” value turned out to be 11%.
Turning to `Cc1cccc(C(=O)O/N=C/c2ccc(Br)cc2)c1`, the “hERG current change (%, negative = inhibition) at 10uM” value was 13.3%.
To `C/C(=N\NC(=O)CN(c1ccc(C)cc1)S(C)(=O)=O)c1cccs1` belongs -8.31%; to `CCOC(=O)c1ccc(NC(=S)NNC(=O)C2(C)CC2(Cl)Cl)cc1` (centres unmarked), 28.4%; to `CN(C)S(=O)(=O)N1CCC(Oc2ccc(C(=O)NC3CCCCC3)cc2)CC1`, 27.3%.
Under `COc1ccccc1Nc1n[nH]c(=S)s1` stands 8.52%; under `Cc1ccc(NC(=O)CN(C)C(=O)COC(=O)c2nc3nccc(C)n3n2)cc1`, 7.33%.
Take `CCOC(=O)Cn1nnc(-c2ccc([N+](=O)[O-])cc2)n1`: the “hERG current change (%, negative = inhibition) at 10uM” value is given as -4.99%.
As to `O=C(O)CCCCC1SCC2NC(=O)NC21` (centres unmarked), the “hERG current change (%, negative = inhibition) at 10uM” value turned out to be 3.46%.
Consider `COc1cccc2cc(C(=O)C3=C(O)C(=O)N(CCN(C)C)C3c3ccc(F)cc3)oc12` (centres unmarked), for which the “hERG current change (%, negative = inhibition) at 10uM” value is listed as 1.39%.
Take `COc1cccc(NC(=O)CN(C)C(=O)c2ccc(NC(=O)CC3SC(N4CCCCC4)=NC3=O)cc2)c1` (centres unmarked): the “hERG current change (%, negative = inhibition) at 10uM” value turned out to be 5.5%.
To `Cc1ccc(N2CCN(S(=O)(=O)c3ccc4c(c3)n(C)c(=O)c(=O)n4C)CC2C)cc1` (centres unmarked) belongs 2.97%.
In the case of `CCCc1nc2c(C)cc(-c3nc4ccccc4n3C)cc2n1Cc1ccc(-c2ccccc2C(=O)O)cc1`, the “hERG current change (%, negative = inhibition) at 10uM” value is -31.7%.
For the compound `Cc1[nH]n(-c2ccccc2)c(=O)c1N=Nc1ccc(C#N)cc1`, the “hERG current change (%, negative = inhibition) at 10uM” value turned out to be 15.6%.
`Cn1c(SCC(=O)NNC(=O)c2ccccc2)nnc1C1CC1`: the “hERG current change (%, negative = inhibition) at 10uM” value is 10.8%.
As to `COC(=O)c1sccc1-c1ccc(/C=N/OC(=O)c2ccccc2)o1`, the “hERG current change (%, negative = inhibition) at 10uM” value stood at 7.69%.
For the compound `Cc1ccccc1NC(=O)CSc1nnc(-c2ccoc2C)n1CCc1ccccc1`, the “hERG current change (%, negative = inhibition) at 10uM” value is reported as -59.6%.
In the case of `Cc1cc(C)n(-c2nc(SCC(=O)O)c3c4c(sc3n2)COC(C)(C)C4)n1`, the “hERG current change (%, negative = inhibition) at 10uM” value stood at 2.48%.
Under `O=C(Nc1cc(S(=O)(=O)N2CCCCC2)ccc1Oc1ccccc1)C1=COCCO1` stands -10.6%.
In the case of `Cc1nonc1NC(=O)Nc1cccnc1`, the “hERG current change (%, negative = inhibition) at 10uM” value is listed as -0.462%.
Turning to `C=CCc1cccc(/C=N/NC(=O)c2ccccc2OC)c1O`, the “hERG current change (%, negative = inhibition) at 10uM” value is on record as 14.1%.
Under `Cc1nn(CC#N)c(=O)n1-c1ccc(F)cc1` stands 10.4%; under `CCCSc1nc2sc3c(c2c(=O)[nH]1)CCN(Cc1ccccc1)C3`, -13.9%; under `O=S(=O)(Nc1ccncc1Cl)c1ccccc1`, -13.8%.
For the compound `O=C(Oc1c(Cl)cc(Cl)c2cccnc12)c1ccco1`, the “hERG current change (%, negative = inhibition) at 10uM” value is given as -6.09%.
To `O=[N+]([O-])c1ccc(NC(=S)N2CCCC2)cc1` belongs 1.8%; to `CC(=O)c1cn(CCOc2ccc(F)cc2)c2ccccc12`, -3.33%.
As for `CCOC(=O)C1C(c2ccc3c(c2)OCO3)NC(=O)NC1(O)C(F)(F)F` (centres unmarked), the “hERG current change (%, negative = inhibition) at 10uM” value worked out at 8.93%.
`O=c1cc(CN2CC=C(c3ccccc3)CC2)c2c(ccc3ccccc32)o1`: the “hERG current change (%, negative = inhibition) at 10uM” value was -0.374%.
On to `CCOC(=O)c1c(C)n(C)c2ccc(OC(=O)c3ccoc3)cc12`, for which the “hERG current change (%, negative = inhibition) at 10uM” value came out at 3.02%.
To `N#C/C(=C\c1ccc(N2CCOCC2)o1)C(=O)NCC1CCCO1` (centres unmarked) belongs -0.262%; to `CCN(CC)CCCNCC(=O)Nc1ccc(OC)c(Cl)c1.O=C(O)C(=O)O`, -15.5%; to `O=C1c2ccccc2CCC12N=NCC2c1ccc(Cl)cc1` (centres unmarked), -4.7%.
In the case of `CC(=O)N1CCOc2ccc(S(=O)(=O)N3CCC(C(=O)NCc4ccccc4)CC3)cc21`, the “hERG current change (%, negative = inhibition) at 10uM” value was 8.85%.
Under `Cc1cc(C)c(NC(=O)CN2C(=O)NC3(CCCCC3)C2=O)c(C)c1` stands 0.115%.
With `Cc1ccccc1CN(c1ccc(C(=O)NCc2ccccn2)cc1)S(C)(=O)=O`, the “hERG current change (%, negative = inhibition) at 10uM” value is reported as -35.4%.
Consider `OC(COCC(F)(F)C(F)(F)C(F)(F)C(F)F)Cn1c2ccc(Cl)cc2c2cc(Cl)ccc21` (centres unmarked), for which the “hERG current change (%, negative = inhibition) at 10uM” value was -9.49%.
Under `CCOc1cc2[nH]c(=S)n(Cc3ccc(C(=O)N4CCN(C)CC4)cc3)c(=O)c2cc1OCC` stands 11.4%; under `Cc1ccc(SCC(=O)NCCN2C(=O)CSC2=O)cc1C`, 1.73%; under `S=C(Nc1ccc(Cl)cc1)NC1CC2CCCC(C1)N2C1CC1` (centres unmarked), -32.9%.
Under `Cn1c(CNC(=O)Nc2cccc(Cl)c2)nnc1SCc1ccccc1` stands -1.75%.
Under `COc1c2ccoc2c(OC[C@@H](O)C(C)(C)O)c2oc(=O)ccc12` stands 7.95%; under `Clc1nccc(N2CCN(c3ccccc3Cl)CC2)n1`, -11.4%.
On to `O=C(CN1CCC(C(=O)c2ccc3c(c2)OCCO3)CC1)NC1CCCC1`, for which the “hERG current change (%, negative = inhibition) at 10uM” value worked out at 5.27%.
As to `CC12CCC(=O)N1C(C(=O)Nc1cc(C(F)(F)F)ccc1N1CCOCC1)CS2` (centres unmarked), the “hERG current change (%, negative = inhibition) at 10uM” value is -10.1%.
On to `CC(C)CNC(=S)Nc1ccc(F)cc1`, for which the “hERG current change (%, negative = inhibition) at 10uM” value is 12.2%.
Under `CC(=O)Nc1ccc(N2C(=O)c3cccc(NC(C)=O)c3C2=O)cc1` stands 23.3%; under `COc1ccccc1Nc1ccc([N+](=O)[O-])cn1`, 12%.
As for `Cc1sc2ncnc(SCC(=O)N3CCCC(C(N)=O)C3)c2c1C` (centres unmarked), the “hERG current change (%, negative = inhibition) at 10uM” value is on record as -0.398%.

The values above are taken from paper PMC4336329 (PLoS ONE, 2015).
